# Test results published in ChEMBL document CHEMBL5606460, “ASAP - DENV-2 NS2B-NS3 protease fluorescence single point” (2024).
# Screen size: about 2,000 compounds; about 110 (5.5%) showed an effect of 50% or more. This is one part of the list.
# Target: Genome polyprotein (dengue virus type 2) (UniProt P29990)
# [1] = Thailand/16681/1984, Concentration 25.0 uM, Number of replicates 1.0
structure (smiles),measurement,setting,value
CN(CCC=C1c2ccccc2CCc2ccccc21)C(=O)C1CCN(c2ccc(C=O)cc2)CC1,inhibition,[1],-6.79%
Cc1cc(CO)c2cccc(Cc3cccc(NC(=O)c4cnn(Cc5c(C)noc5C)c4)c3)c2n1,inhibition,"Thailand/16681/1984, Concentration 49.95 uM, Number of replicates 2.0, Standard deviation 1.4870028556253494 %",-3.7%
same,inhibition,"Thailand/16681/1984, Concentration 99.9 uM, Number of replicates 2.0, Standard deviation 1.816697484259061 %",-0.8%
N#Cc1ccc(NC(=O)c2cccc(OCc3c(Cl)cccc3Cl)c2)cc1,inhibition,"Thailand/16681/1984, Concentration 49.5 uM, Number of replicates 2.0, Standard deviation 17.67811325168481 %",6.75%
same,inhibition,"Thailand/16681/1984, Concentration 99.01 uM, Number of replicates 2.0, Standard deviation 0.20698957935797424 %",-7.61%
same,inhibition,"Thailand/16681/1984, Concentration 198.0 uM, Number of replicates 2.0, Standard deviation 0.09782384691814931 %",-4.23%
CCS(=O)(=O)Cn1cc(C2CCNCC2)c(C)n1,inhibition,"Thailand/16681/1984, Concentration 49.5 uM, Number of replicates 2.0, Standard deviation 2.7056603724842327 %",-1.53%
same,inhibition,"Thailand/16681/1984, Concentration 99.01 uM, Number of replicates 2.0, Standard deviation 2.294245912720445 %",-0.434%
same,inhibition,"Thailand/16681/1984, Concentration 198.0 uM, Number of replicates 2.0, Standard deviation 1.6780636236445106 %",0.44%
O=Cc1ccc(N2CCC(C(=O)N3CCCN(C(=O)c4cccs4)CC3)CC2)cc1,inhibition,[1],12.9%
Cc1cc(CO)c2cccc(NC(=O)[C@@H](N)CC(N)=O)c2n1,inhibition,"Thailand/16681/1984, Concentration 49.95 uM, Number of replicates 2.0, Standard deviation 1.8295341709834483 %",-3.67%
same,inhibition,"Thailand/16681/1984, Concentration 99.9 uM, Number of replicates 2.0, Standard deviation 6.049352845396267 %",-1.2%
COc1cc(C(=O)N2CCCCC2)nc(N2CCNCC2)n1,inhibition,"Thailand/16681/1984, Concentration 49.5 uM, Number of replicates 2.0, Standard deviation 0.534757190857495 %",-6.02%
same,inhibition,"Thailand/16681/1984, Concentration 99.01 uM, Number of replicates 2.0, Standard deviation 0.5656980352863125 %",-4.45%
same,inhibition,"Thailand/16681/1984, Concentration 198.0 uM, Number of replicates 2.0, Standard deviation 0.017532920393137873 %",-3.65%
CC(=O)N(C)C1CCN(C(=O)C2CCN(c3ccc(C=O)cc3)CC2)CC1,inhibition,[1],12.3%
C[C@H](NC(=O)C1CCN(c2ccc(C=O)cc2)CC1)c1ccc(Br)cc1,inhibition,[1],12.7%
Nc1ccnc2c(Cl)cccc12,inhibition,"Thailand/16681/1984, Concentration 49.95 uM, Number of replicates 2.0, Standard deviation 2.736837302484984 %",-9.22%
same,inhibition,"Thailand/16681/1984, Concentration 99.9 uM, Number of replicates 2.0, Standard deviation 4.13445849353631 %",-8.19%
O=C(Cn1sc2ccccc2c1=O)Nc1cccc(OCc2cn(CC(=O)Nc3ccccc3Oc3ccccc3)nn2)c1,inhibition,"Thailand/16681/1984, Concentration 49.5 uM, Number of replicates 2.0, Standard deviation 1.838020691812208 %",3.7%
same,inhibition,"Thailand/16681/1984, Concentration 99.01 uM, Number of replicates 2.0, Standard deviation 1.6110447397155796 %",9.16%
same,inhibition,"Thailand/16681/1984, Concentration 198.0 uM, Number of replicates 2.0, Standard deviation 2.762343563679413 %",9.79%
O[C@@H]1CNC[C@H]1c1c[nH]c2ccccc12,inhibition,"Thailand/16681/1984, Concentration 49.5 uM, Number of replicates 2.0, Standard deviation 0.14303300114814788 %",-1.88%
same,inhibition,"Thailand/16681/1984, Concentration 99.01 uM, Number of replicates 2.0, Standard deviation 0.7725694770279107 %",-1.43%
same,inhibition,"Thailand/16681/1984, Concentration 198.0 uM, Number of replicates 2.0, Standard deviation 0.830452430949514 %",-0.825%
O=Cc1ccc(N2CCC(C(=O)Nc3ncnc4c3ncn4CCO)CC2)cc1,inhibition,[1],14.1%
c1ccc2sc(C3CCN(Cc4c[nH]c5ccccc45)CC3)nc2c1,inhibition,"Thailand/16681/1984, Concentration 49.5 uM, Number of replicates 2.0, Standard deviation 0.9264282755377183 %",-2.4%
same,inhibition,"Thailand/16681/1984, Concentration 99.01 uM, Number of replicates 2.0, Standard deviation 1.1791713356742093 %",-0.136%
same,inhibition,"Thailand/16681/1984, Concentration 198.0 uM, Number of replicates 2.0, Standard deviation 0.7079476951080369 %",1.66%
CC(CNC(=O)C1CCN(c2ccc(C=O)cc2)CC1)(c1ccccc1)c1ccccc1,inhibition,[1],1.2%
O=Cc1ccc(N2CCC(C(=O)Nc3c(Cl)cc(Cl)cc3Br)CC2)cc1,inhibition,[1],13.4%
CNC(=O)C[C@H]1CCCCN1S(=O)(=O)c1ccc(Oc2ccccc2Cl)cc1,inhibition,"Thailand/16681/1984, Concentration 49.5 uM, Number of replicates 2.0, Standard deviation 0.6403061336392061 %",-1.92%
same,inhibition,"Thailand/16681/1984, Concentration 99.01 uM, Number of replicates 2.0, Standard deviation 0.5926288072768489 %",-0.478%
same,inhibition,"Thailand/16681/1984, Concentration 198.0 uM, Number of replicates 2.0, Standard deviation 0.4290957159902598 %",1.47%
Cc1cc(CO)c2cccc(Cc3ccccc3C(=O)NCC(=O)O)c2n1,inhibition,"Thailand/16681/1984, Concentration 49.95 uM, Number of replicates 2.0, Standard deviation 0.8422599232434016 %",38.5%
same,inhibition,"Thailand/16681/1984, Concentration 99.9 uM, Number of replicates 2.0, Standard deviation 0.5627042603428867 %",64.9%
CCn1nnc(Cn2ncc(C3CCNCC3)c2C)n1,inhibition,"Thailand/16681/1984, Concentration 49.5 uM, Number of replicates 2.0, Standard deviation 0.7148158612476752 %",0.727%
same,inhibition,"Thailand/16681/1984, Concentration 99.01 uM, Number of replicates 2.0, Standard deviation 0.39019518633906886 %",1.37%
same,inhibition,"Thailand/16681/1984, Concentration 198.0 uM, Number of replicates 2.0, Standard deviation 0.9028682715138255 %",2.51%
Cc1cc(CO)c2cccc(C[C@H](NC(=O)c3cc(C(F)F)nn3C)C(=O)O)c2n1,inhibition,"Thailand/16681/1984, Concentration 49.95 uM, Number of replicates 2.0, Standard deviation 1.4383595761786832 %",1.98%
same,inhibition,"Thailand/16681/1984, Concentration 99.9 uM, Number of replicates 2.0, Standard deviation 0.48778570830386186 %",5.89%
COc1ccccc1[C@H](C)NC(=O)C1CCN(c2ccc(C=O)cc2)CC1,inhibition,[1],12.6%
CC(C)(CO)NC(=O)c1cc(Cl)cc(NC(=O)c2ccc(O)nc2)c1,inhibition,"Thailand/16681/1984, Concentration 49.5 uM, Number of replicates 2.0, Standard deviation 1.6513087199160978 %",-2.63%
same,inhibition,"Thailand/16681/1984, Concentration 99.01 uM, Number of replicates 2.0, Standard deviation 2.6812944153496905 %",-0.674%
same,inhibition,"Thailand/16681/1984, Concentration 198.0 uM, Number of replicates 2.0, Standard deviation 14.419090783931495 %",10.7%
